Experimental data: the supplement of paper PMC11417369
± gives the standard deviation of the averaged measurements. The list shows a part of the results.

These sequences were tested on PfAP2-G AP2 domain (GST-tagged) (assay: gcPBM binding intensity (ln(normalized median fluorescence intensity)); higher = stronger DNA binding).
Outline: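 An Agilent 4 × 180k array of primer-extended double-stranded 36-bp intergenic genomic probes, with negative controls, was incubated for 1 h with GST-tagged P. falciparum DNA-binding domains expressed in E. coli. Alexa488 anti-GST antibody detected bound protein, scanned at 488 nm. Binding intensity is the highest Masliner-normalised natural-log median intensity across replicate spots of either probe orientation.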
“CATATTAAGATGTGTACACATTTTTATTTTTTTTTT [CACACA_site4425]” was tested, and the “gcPBM binding intensity (ln)” value was 11.6 ± 0.93.
For GTATTCATTCCTTGAGTGCAATTGCAATAAATAAAA, the “gcPBM binding intensity (ln)” value was 10.4 ± 0.41.
In the case of “AATATATAAATATATATAAATAAATATATATATAAA [CACACA_negctrl_site49]”, the “gcPBM binding intensity (ln)” value is reported as 9.34 ± 0.15.
With “AAATGGAAATTAATATGTACATATTTATAAGTATGA [XGTACX_site1774]” the “gcPBM binding intensity (ln)” value was 11.2 ± 0.67.
With “TCCTATCATTTATATTTTACTACATAATATTGATAA [GTGCAC_negctrl_site286]” the “gcPBM binding intensity (ln)” value was 9.96 ± 0.12.
“AAATGACGAAATAAAATCATAAATTAAAATAAATAA [CACACA_negctrl_site655]” was tested, and the “gcPBM binding intensity (ln)” value was 9.62 ± 0.12.
“ATAGCATTTCACAAATGTACATAAAAAAATAAAAAT [XGTACX_site402]” was tested, and the “gcPBM binding intensity (ln)” value was 11.3 ± 0.81.
For “TAAAACAAAATGGTAACACACACATATATATATATA [CACACA_site8590]”, the “gcPBM binding intensity (ln)” value was 10.1 ± 0.27.
For “TTTTACAAATATTTCTGTACACATTCTCATATAATT [XGTACX_site1974]”, the “gcPBM binding intensity (ln)” value was 11.5 ± 0.88.
In the case of “TTTTTTAATTAATTACCTTTGAATGTGTATTAGGAC [GTGCAC_negctrl_site651]”, the “gcPBM binding intensity (ln)” value is reported as 10.2 ± 0.22.
For “ATGTTTCTATAGATTTGTACATATTTCATATGAATA [XGTACX_site1053]”, the “gcPBM binding intensity (ln)” value was 10.9 ± 0.59.
For “TTATTTTTTGTATGAACACACAACTTAATTATGATG [CACACA_site2448]”, the “gcPBM binding intensity (ln)” value was 10.3 ± 0.11.
With “TCTTTTCTTTTGTGTGTGCACATATAAGCATGAAAC [GTGCAC_site9910]” the “gcPBM binding intensity (ln)” value was 10.8 ± 0.67.
“ACTTAATTTTTTTATTGTACATGTAAATGAGGGAAA [XGTACX_site6305]” was tested, and the “gcPBM binding intensity (ln)” value was 11.2 ± 0.57.
“TATTTTAATAAGAATAAATGAAATGAAATGAAATAT [CACACA_negctrl_site823]” was tested, and the “gcPBM binding intensity (ln)” value was 9.865 ± 0.092.
With “TATATATATATATATTGTACAAAGATTAATATATAA [XGTACX_site8433]” the “gcPBM binding intensity (ln)” value was 10.8 ± 0.45.
With “ACATCCTATAAATAGAGTACGTAAATTATAATACAC [XGTACX_site5338]” the “gcPBM binding intensity (ln)” value was 11.4 ± 0.97.
In the case of “TAGTGTGCCAAATTAGCACACACATATATACATGAA [CACACA_site8910]”, the “gcPBM binding intensity (ln)” value is reported as 10.2 ± 0.36.
In the case of “TTTTCTAATTAATATTGTACATAAATGTATATATAT [XGTACX_site4749]”, the “gcPBM binding intensity (ln)” value is reported as 10.9 ± 0.45.
“GTTTTTATCATATCATGTACGTATTTTATTTTTTTT [XGTACX_site8643]” was tested, and the “gcPBM binding intensity (ln)” value was 11.6 ± 0.93.
With “CTTCTGGACAGGAATGCACACATTTTTTTTTCTTTT [CACACA_site1807]” the “gcPBM binding intensity (ln)” value was 10.5 ± 0.17.
In the case of “ATCAAAGATAAATTTACACACATATAAATATAAATA [CACACA_site7409]”, the “gcPBM binding intensity (ln)” value is reported as 9.62 ± 0.028.
For “CATATATACTCATACACACACACACCGACACAGACA [CACACA_site5026]”, the “gcPBM binding intensity (ln)” value was 10.4 ± 0.34.
For “ATGATATGGATAAATACACACAATATAATAATGTCT [CACACA_site1433]”, the “gcPBM binding intensity (ln)” value was 9.99 ± 0.042.
“TATGATGAGATAACAAAAGTTGTACTTTTTTTTTTT [CACACA_negctrl_site1172]” was tested, and the “gcPBM binding intensity (ln)” value was 11.5 ± 0.98.
For “AATATTTAACACCTTATACACACTTTCTTCCTTTTT [CACACA_site785]”, the “gcPBM binding intensity (ln)” value was 9.86 ± 0.2.
“ATATTTTTTAGGGTCACACATACTTATTATATAAAT [CACACA_site4926]” was tested, and the “gcPBM binding intensity (ln)” value was 10.7 ± 0.4.
With “AGGAAAACAAAAGATGCATGCTAATTTTCCTCGCGT [TGCATGCA_site627]” the “gcPBM binding intensity (ln)” value was 9.69 ± 0.17.
In the case of “CTGAAGAAACTACAACGTACAAAATATGTATATATT [XGTACX_site3779]”, the “gcPBM binding intensity (ln)” value is reported as 10.8 ± 0.49.
For “AAAGCACGCAAGAATACACACAAATATTATAAAAAA [CACACA_site6206]”, the “gcPBM binding intensity (ln)” value was 10.1 ± 0.24.
“ATCCCAGTAATATATAGTACATAACTATAAGAGAAT [XGTACX_site6909]” was tested, and the “gcPBM binding intensity (ln)” value was 10.8 ± 0.59.
In the case of “TAAAAAATTATAAAATGTACATAAAAAAAAAAAAAA [XGTACX_site3376]”, the “gcPBM binding intensity (ln)” value is reported as 11.1 ± 1.1.
With “AAAATTAATAAATGAGAAAAAAGGATGAATAATGAG [CACACA_negctrl_site1614]” the “gcPBM binding intensity (ln)” value was 10.22 ± 0.071.
“AGAAAAAAAATGTATACACACAAATATAAAGAAGGA [CACACA_site3806]” was tested, and the “gcPBM binding intensity (ln)” value was 10.08 ± 0.028.
With “TTTATTAATTAAACCATACACACATAATTTTTTTAT [CACACA_site842]” the “gcPBM binding intensity (ln)” value was 9.975 ± 0.064.
With “AAACGTGCGTATATGTGTACGCATATATATATATAT [XGTACX_site5252]” the “gcPBM binding intensity (ln)” value was 11.6 ± 1.
With “TACATAAAATACCATGCATGCTAGTAAAAAAAAAAA [TGCATGCA_site650]” the “gcPBM binding intensity (ln)” value was 9.81 ± 0.17.
In the case of “TAATATATTTATAGAGCATGCAACGTAATATTATTA [TGCATGCA_site863]”, the “gcPBM binding intensity (ln)” value is reported as 9.835 ± 0.035.
“ATGGAAATAAAAAAAAAAAAAAAAAAAAATATATAT [GTGCAC_negctrl_site67]” was tested, and the “gcPBM binding intensity (ln)” value was 9.61 ± 0.21.
With “TAGCCCACATTTAATGGTACAGTGAGTATATATATG [XGTACX_site8044]” the “gcPBM binding intensity (ln)” value was 11.1 ± 0.66.
For “AAAATGCATTTGATGTGTACGCATTATAAAGAACAA [XGTACX_site4203]”, the “gcPBM binding intensity (ln)” value was 11.6 ± 1.
“CAAATAGCTAGCTGTGCACACAAACATATTTTCCAA [CACACA_site879]” was tested, and the “gcPBM binding intensity (ln)” value was 10.3 ± 0.15.
For “CACAAACAAAGACACACACACACACGCACAAAAATG [CACACA_site7193]”, the “gcPBM binding intensity (ln)” value was 10.6 ± 0.45.
In the case of “AACAATTAGAACTTTGCACACTTCTATATATTTTGT [CACACA_site674]”, the “gcPBM binding intensity (ln)” value is reported as 9.91 ± 0.2.
With “TGTATTTATAGACACACACACTTTCTTTTTTTAAGA [CACACA_site7010]” the “gcPBM binding intensity (ln)” value was 10.09 ± 0.049.
